Read-outs that look alike come from different tables or passages of the source.
Legend:
[1] = biological target: maltose-binding protein (MBP)-tagged full-length human DDX6 (human) (UniProt P26196); test: pull-down
[2] = biological target: maltose-binding protein (MBP)-tagged full-length human DDX6 (human) (UniProt P26196); test: pull-down; remark: listed apart in the source

Chain of UniProt P26196 (P26196 whole entry): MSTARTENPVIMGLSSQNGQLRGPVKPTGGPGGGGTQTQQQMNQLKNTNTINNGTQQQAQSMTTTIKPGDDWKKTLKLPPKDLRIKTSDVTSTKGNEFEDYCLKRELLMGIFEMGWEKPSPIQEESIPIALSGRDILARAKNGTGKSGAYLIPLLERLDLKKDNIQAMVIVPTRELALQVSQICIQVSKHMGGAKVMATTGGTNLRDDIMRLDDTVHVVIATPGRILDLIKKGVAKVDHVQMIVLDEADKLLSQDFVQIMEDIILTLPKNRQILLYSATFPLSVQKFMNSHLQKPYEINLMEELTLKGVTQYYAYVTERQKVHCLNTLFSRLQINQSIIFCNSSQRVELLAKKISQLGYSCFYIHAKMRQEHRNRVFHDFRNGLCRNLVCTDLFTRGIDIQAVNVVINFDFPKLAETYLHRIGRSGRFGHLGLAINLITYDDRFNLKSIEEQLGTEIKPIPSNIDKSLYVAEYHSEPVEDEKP

percent of input coprecipitated [1]: < 1 % input
percent of input coprecipitated [2]: < 1 % input
Substance: human CNOT1 (endogenous, cell lysate) (a stretch of the chain, chain not printed) (natural protein)
